{"source": "PubChem BioAssay AID1508642", "about": "(National Center for Advancing Translational Sciences (NCATS), 2021)", "note": "Screen size: about 43,000 compounds; about 200 (0.47%) were called active. Inconclusive results (about 12%) are left out. Calls come from the whole dose curve; as a rule, active = well fitted cell-killing curve with a large enough effect; inconclusive = small, poorly fitted or top-dose-only effect, or effect the other way; inactive = flat fitted curve, though single readings scatter. The list shows a part of the results. % is set by controls: 0 for no effect and ±100 for the full control effect.", "data": [{"assay": "Cell viability qHTS assay in S16 Pmp22-F2sN cells; note: nearly all actives have a fitted effect of over 65% in size", "conditions": "S16 Pmp22-F2sN Schwann cells viability, CellTiter-Glo, 24 h; series mostly up to 57.5 µM; activity change, negative = cytotoxicity: at the top concentration", "procedure,_shortened": "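S16 Pmp22-F2sN Schwann cells (500-1,000/well) in phenol-red-free DMEM with 10% FBS received 23 nL compound by pin tool for 24 h at 37 °C. Viability was then read as CellTiter-Glo luminescence after 15 min at room temperature.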", "values": [{"smiles": "Cn1nc(C(=O)Nc2ccc(F)c(Cl)c2)c2c1-c1ccccc1S(=O)(=O)C2", "activity change, negative = cytotoxicity": "inactive: -10.7%"}, {"smiles": "CCOC(=O)c1c(C)c(-c2ccccc2)n(CC(=O)NC2CCCCC2)c1C", "activity change, negative = cytotoxicity": "inactive: -6.77%"}, {"smiles": "O=C(Cn1c(=O)nc(-c2ccccc2)c2cc(Cl)ccc21)N1CCN(c2ccc(F)cc2)CC1", "activity change, negative = cytotoxicity": "inactive: 12.3%"}, {"smiles": "COc1ccc(C(=O)NC2(C(F)(F)F)C(=O)Nc3c2c(=O)[nH]c(=O)n3CCc2ccc(OC)c(OC)c2)cc1", "note": "(configuration not stated)", "activity change, negative = cytotoxicity": "inactive: 16.8%"}, {"smiles": "COc1cc(C2CC(=O)Oc3c2c(=O)n(C)c2ccccc32)ccc1O", "note": "(configuration not stated)", "activity change, negative = cytotoxicity": "inactive: 3.78%"}, {"smiles": "Cc1ccc(NC(=O)Cn2c(=O)n(CC3CCCO3)c(=O)c3ccccc32)cc1", "note": "(configuration not stated)", "activity change, negative = cytotoxicity": "inactive: 15.9%"}, {"smiles": "Cc1cc(C)c2oc(-c3cccc(NC(=O)COc4ccc([N+](=O)[O-])cc4)c3)nc2c1", "activity change, negative = cytotoxicity": "inactive: -18.9%"}, {"smiles": "Cc1ccc(Cl)cc1N1CCN(C(=O)c2ccc(CS(=O)(=O)c3ccccc3C)o2)CC1", "activity change, negative = cytotoxicity": "inactive: 6.95%"}, {"smiles": "O=C(COc1ccccc1)Nc1ccc2nc(SCCOc3ccccc3)sc2c1", "activity change, negative = cytotoxicity": "inactive: 4.81%"}, {"smiles": "CCOC(=O)c1[nH]c(C)c(CCC(=O)Nc2cc(C)ccc2OC)c1C", "activity change, negative = cytotoxicity": "inactive: 2.66%"}, {"smiles": "CCc1ccccc1NC(=O)c1cnc(N2CCCCC2)c2ccccc12", "activity change, negative = cytotoxicity": "inactive: -12.4%"}, {"smiles": "COc1cc(C(=O)NCC(c2cccs2)S(=O)(=O)c2cccs2)cc(OC)c1OC", "note": "(configuration not stated)", "activity change, negative = cytotoxicity": "inactive: 13.8%"}, {"smiles": "CCOc1ccc(CCNC(=O)Cn2nc(CC)n3c(cc4ccccc43)c2=O)cc1", "activity change, negative = cytotoxicity": "inactive: 11%"}, {"smiles": "Fc1ccc(-c2noc3ncnc(NCc4ccc(Cl)cc4)c23)cc1", "activity change, negative = cytotoxicity": "inactive: -19.1%"}, {"smiles": "O=C(CCn1c(=O)c2cccn2c2cccnc21)NCc1ccc(F)cc1", "activity change, negative = cytotoxicity": "inactive: 20.8%"}, {"smiles": "CCN1C(=O)c2ccccc2S(=O)c2ccc(C(=O)N3CCN(c4cc(Cl)ccc4C)CC3)cc21", "note": "(configuration not stated)", "activity change, negative = cytotoxicity": "inactive: -5.5%"}, {"smiles": "Cc1ccccc1CN1CCC(CNC(=O)c2c(C)oc3ncnc(N4CCCCC4)c23)CC1", "activity change, negative = cytotoxicity": "inactive: 5.11%"}, {"smiles": "CCOc1ccc(CCNC(=O)C2=C(C)C(=O)OC23CCCCC3)cc1", "activity change, negative = cytotoxicity": "inactive: -1.82%"}, {"smiles": "CCC(Sc1nc(-c2ccccc2F)nc2c1Cc1c(CO)cnc(C)c1O2)C(=O)Nc1cc(C)ccc1C", "note": "(configuration not stated)", "activity change, negative = cytotoxicity": "inactive: -6.23%"}, {"smiles": "Cc1ccccc1C1CC(=O)Nc2ccc3ccccc3c21", "note": "(configuration not stated)", "activity change, negative = cytotoxicity": "inactive: -6.35%"}, {"smiles": "Cc1ccc(C(=O)c2cn(CC(=O)Nc3ccc(C)cc3Cl)c3nc(C)ccc3c2=O)cc1", "activity change, negative = cytotoxicity": "inactive: 5.23%"}, {"smiles": "Cc1cccc(NC(=O)N2CC(=O)Nc3sc4c(c3C2c2ccccc2)CCCC4)c1C", "note": "(configuration not stated)", "activity change, negative = cytotoxicity": "inactive: 4.56%"}, {"smiles": "CCOC(=O)C1CCN(C(=O)c2ccc(-n3ccc4ccccc43)s2)CC1", "activity change, negative = cytotoxicity": "inactive: 7.19%"}, {"smiles": "COc1ccc(Cn2ccn(Cc3cccc(OC)c3)c(=O)c2=O)cc1", "activity change, negative = cytotoxicity": "inactive: 2.71%"}, {"smiles": "CCOc1ccccc1OCCCn1c(-c2ccc(Cl)cc2)nc2ccccc2c1=O", "activity change, negative = cytotoxicity": "inactive: -1.7%"}, {"smiles": "Cc1cn2c(=O)cc(COC(=O)c3ccc(NC(=O)COc4ccccc4F)cc3)nc2s1", "activity change, negative = cytotoxicity": "inactive: 1.27%"}, {"smiles": "Cc1cc(C)cc(-n2c(-c3ccccc3)c(C)n3c4c(=O)n(C)c(=O)n(C)c4nc23)c1", "activity change, negative = cytotoxicity": "inactive: 7.2%"}, {"smiles": "CCOc1cc(CNC(=O)c2ccc3c(c2)NC(=O)C2CCCCN32)cc(OCC)c1OCC", "note": "(configuration not stated)", "activity change, negative = cytotoxicity": "inactive: 6.77%"}, {"smiles": "COc1ccc(NC(=O)CSC2=Nc3ccccc3C3=NC(CCC(=O)NC4CCCCC4)C(=O)N23)cc1", "note": "(configuration not stated)", "activity change, negative = cytotoxicity": "inactive: 8.45%"}, {"smiles": "CCCS(=O)(=O)N1CC(=O)N(c2ccc(Cl)cc2C)C(C)(C(=O)NC2CCCC2)C1", "note": "(configuration not stated)", "activity change, negative = cytotoxicity": "inactive: 4%"}, {"smiles": "COc1cc2nc(NC(=O)c3ccc(S(=O)(=O)N4CCOCC4)cc3)sc2cc1OC", "activity change, negative = cytotoxicity": "inactive: 20%"}, {"smiles": "O=C(CSCc1ccccc1Cl)N1CCN(c2ccc(Cl)cc2)CC1", "activity change, negative = cytotoxicity": "inactive: 1.26%"}, {"smiles": "COc1c(C)cccc1C(=O)Nc1cccc2ccc(C)nc12", "activity change, negative = cytotoxicity": "inactive: 10.1%"}, {"smiles": "CC(=O)c1cccc(NC(=O)C2CCN(S(=O)(=O)c3ccc4c(c3)oc(=O)n4C)CC2)c1", "activity change, negative = cytotoxicity": "inactive: 8.5%"}, {"smiles": "COc1ccc2oc(=O)c(-c3cn4c(n3)sc3cc(OC)ccc34)cc2c1", "activity change, negative = cytotoxicity": "inactive: -0.154%"}, {"smiles": "COc1ccc(OC)c(CNC(=O)Cn2nc(C)c3nn(-c4ccc(Cl)cc4)c(C)c3c2=O)c1", "activity change, negative = cytotoxicity": "inactive: -3.5%"}, {"smiles": "COc1ccc(/C=C/C(=O)Nc2nc3n(n2)C(c2ccccc2)C=C(c2ccc(Cl)cc2)N3)cc1", "note": "(configuration not stated)", "activity change, negative = cytotoxicity": "inactive: 4.26%"}, {"smiles": "COc1ccc(CNC(=O)CCNS(=O)(=O)c2cccc3nsnc23)cc1", "activity change, negative = cytotoxicity": "inactive: 22.8%"}, {"smiles": "Fc1ccc(-n2ncc3c(N4CCC(Cc5ccccc5)CC4)ncnc32)cc1", "activity change, negative = cytotoxicity": "inactive: -2.53%"}, {"smiles": "CCOc1ccccc1CNC(=O)c1ccc(NC(=O)N2CCSc3ncccc32)cc1", "activity change, negative = cytotoxicity": "inactive: -8.57%"}, {"smiles": "Clc1ccc(N2CCN(c3ncnc4c3cnn4-c3ccccc3)CC2)cc1Cl", "activity change, negative = cytotoxicity": "inactive: 8.69%"}, {"smiles": "COc1ccc(NC(=O)c2cc(S(=O)(=O)N3CCCCCC3)cn2C)cc1Cl", "activity change, negative = cytotoxicity": "inactive: -3.32%"}, {"smiles": "CCc1ccccc1NC(=O)Nc1nnc(N(C)Cc2ccccc2)s1", "activity change, negative = cytotoxicity": "inactive: -2.27%"}, {"smiles": "O=C(Cn1cnc2c(oc3ccccc32)c1=O)Nc1ccc(OC(F)(F)F)cc1", "activity change, negative = cytotoxicity": "inactive: -4.57%"}, {"smiles": "O=C(Nc1cccc(Cl)c1)N1CCC(CN2CCOCC2)CC1", "activity change, negative = cytotoxicity": "inactive: 3.44%"}, {"smiles": "O=C(CN1C(=O)CC(c2ccco2)Sc2ccccc21)Nc1ccc(C(F)(F)F)cc1", "note": "(configuration not stated)", "activity change, negative = cytotoxicity": "inactive: 24.7%"}, {"smiles": "COc1ccc(N(Cc2cccs2)C(=O)c2ccc(C(C)(C)C)cc2)cc1", "activity change, negative = cytotoxicity": "inactive: -23.5%"}]}]}
